# Data taken from patent publication US20240309059A1, “PEPTIDE HAVING ANTI-VIRAL ACTIVITY, ANTI-VIRAL AGENT COMPRISING SAID PEPTIDE, AND METHOD FOR PRODUCING SAID ANTI-VIRAL AGENT” (National University Corporation Tokyo Medical and Dental …, priority 2021, published 2024).
# Not every detail of the peptide structures is certain; ends, links or a residue may be inferred. Some compounds share one wording; it may come from a single statement. Ends that are not written are not given here.
# Biological target: receptor binding domain (RBD) in wild-type SARS-COV-2 (Severe acute respiratory syndrome coronavirus 2, UniProt P0DTC2)
# Settings: for binding activity to the receptor binding domain (RBD): result in words (binding rate and degree of dissociation)
Compound,binding activity to the receptor binding domain (RBD),dissociation from the RBD once bound (washed with a buffer for 3 hours)
DKEWALQKIYEVMRKLDEDGHAEASMRASDLIYEFMKKD [Ce13],lower binding activity than Ce1,–
DKEWILQKIYEIMRKLDEDGHAEASMRVSDLIYEFMKKD [Ce4],higher binding activity than Ce1,does not dissociate at all
CC[C@H](C)[C@H](NC(=O)[C@H](CC(C)C)NC(=O)[C@H](CC(=O)O)NC(=O)[C@H](CO)NC(=O)[C@@H](NC(=O)[C@H](CCCNC(=N)N)NC(=O)[C@H](CCSC)NC(=O)[C@H](CO)NC(=O)[C@H](C)NC(=O)[C@H](CCC(=O)O)NC(=O)[C@H](C)NC(=O)[C@H](Cc1c[nH]cn1)NC(=O)CNC(=O)[C@H](CC(C)C)NC(=O)[C@H](CCC(=O)O)NC(=O)[C@H](CC(=O)O)NC(=O)[C@H](CC(C)C)NC(=O)[C@H](CC(C)C)NC(=O)[C@H](CCCNC(=N)N)NC(=O)[C@H](CCSC)NC(=O)[C@@H](NC(=O)[C@H](CCC(=O)O)NC(=O)[C@H](Cc1ccc(O)cc1)NC(=O)[C@@H](NC(=O)[C@H](CCCCN)NC(=O)[C@H](CCC(N)=O)NC(=O)[C@H](CC(C)C)NC(=O)[C@@H](NC(=O)[C@H](Cc1c[nH]c2ccccc12)NC(=O)[C@H](CCC(=O)O)NC(=O)[C@H](CCCCN)NC(=O)[C@@H](N)CC(=O)O)[C@@H](C)CC)[C@@H](C)CC)[C@@H](C)CC)C(C)C)C(=O)N[C@@H](Cc1ccc(O)cc1)C(=O)N[C@@H](CCC(=O)O)C(=O)N[C@@H](Cc1ccccc1)C(=O)N[C@@H](CCSC)C(=O)N[C@@H](CCCCN)C(=O)N[C@@H](CCCCN)C(=O)N[C@@H](CC(=O)O)C(=O)O [Ce1],high binding rate and a low degree of dissociation,–
